Laboratory results published in the supplement of paper PMC11417369.
The list shows a part of the results.

Each sequence was assayed on PfAP2-HC AP2 domain (GST-tagged) (assay: gcPBM binding intensity (ln(normalized median fluorescence intensity)); higher = stronger DNA binding).
In short: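 Plasmodium falciparum DNA-binding domains carrying a GST tag were expressed in E. coli and applied for 1 h, at about 25 μg on average, to an Agilent 4 × 180k array. The array held primer-extended double-stranded 36-bp intergenic genomic probes together with negative controls, and binding took place in 1× PBS with 1% milk, 0.2 mg/ml BSA, 0.5% salmon testes DNA and 0.03% Triton X-100. An Alexa488 anti-GST antibody detected bound protein, and the array was scanned at 488 nm. Binding intensity is taken as the highest Masliner-normalised natural-log median intensity across replicate spots of either probe orientation.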

Sequence	gcPBM binding intensity (ln)
ATATACTATTAACCACATATGTGTGTTAATTTATAT [GTGCAC_negctrl_site315]	9.79
TTGAACCCCACTAACACACACACGCACGCTCAGAAA [CACACA_site2983]	10.4
ATATTAATTATAACTTGTACGTAAAAGGAAAACAAT [XGTACX_site3269]	9.76
TGCTATTTCATATTCTGTACTAAAACAAGATAATAA [XGTACX_site3852]	9.31
AACACACACATATATATATATATATATATATATATA [GTGCAC_negctrl_site573]	10.4
TTTTTAATATTGTATGCATGTCGTAATAAAAAATTT [TGCATGCA_site259]	9.45
ATAATAAACATATATGTACACACATATACATATATA [CACACA_site8924]	9.83
TATACATTTATGTACACACACATATAGGTATATTTA [CACACA_site7408]	10
AAAATATAATATATTACACACATATATTTTATAAGT [CACACA_site668]	9.82
TTTTTTTAACGGTGTGCACACAATATACAGAAAAAA [CACACA_site1415]	10.3
ATTATATATATTTATGCACACAAAATATATTATATA [CACACA_site9244]	9.64
TATATACATTTATATACACACCTATATTTATTTATA [CACACA_site7014]	9.81
TATATTGAAAATAAAACATGCAATCACTCATACATA [TGCATGCA_site248]	9.63
CAACAATTTCGTCATACACACATTCAGAATCTATAT [CACACA_site7171]	9.84
ATGTACCTATTTCATACACACACACCCACAAACAAA [CACACA_site8232]	10.4
TTTAAACGTTATATAGTGCATGTCATATTTTATTAT	9.76
TACGTAATAATATGCACACAAATAAACTTTATAAAT [CACACA_site3501]	9.97
CAAAAAAGTAAAACGTGTACATATATACATAAAAAT [XGTACX_site5639]	9.86
CTTTTTTATATCTCTACACACATTTATAACAATTTG [CACACA_site1398]	9.87

Sequence	gcPBM binding intensity (ln)
TATGTTGGTTCTTTTAGTACATAATTACTAAATGTA [XGTACX_site8616]	9.66
AAAACATACATATATACACACATATATATATATATA [CACACA_site1852]	10.3
CAAACTACAAAATTTCGTACGCATATATTTCAAGTA [XGTACX_site5154]	9.67
TAATTTCTTATGTGCTATCTTATATAGAATTAATTT [CACACA_negctrl_site1726]	9.39
TATAAAAAATAAAATACACACACATATATATATATA [CACACA_site8365]	10.6
TGCACAAAATTATGCACACACCTAAAATTAATTTTT [CACACA_site5596]	9.8
GGCAATGATTTTAGGTGTACTTAAAAATCAAATTAA [XGTACX_site8587]	9.44
ATTCTAATCATATACACACCCATATATATATATATA [CACACA_site1774]	9.88
TATATATTAATATGCACACACAAGAAGTAATTATAA [CACACA_site3193]	10.2
ATTATATAACAAAATAGTACATATATTTATTACATC [XGTACX_site336]	9.58
GGCATACACGGACACACACACACACCGACATATATA [CACACA_site4493]	11.5
AGCAGTCAGCAGGACAGTACACAGTAGCCAGGAAAT [XGTACX_site4877]	9.52
AAAAAAAAAATTTAGGTGCATACAAATAAATTATAT [GTGCAC_site9521]	9.69
TTATTCTAAAAAGGGTGTACACAAACGAATGGAAAA [XGTACX_site5662]	9.84
ATGGCTAAAAGTTGCACACACACAAAAAAAAAAAAA [CACACA_site3289]	10.2
TAGGAAAAGAAAAGCACACACATAAATAGATATATA [CACACA_site6382]	10.3
ATATATATATATATATATATAATTTTTTTTGTTTTT [TGCATGCA_negctrl_site453]	10.1
GATATCAAAAAGATGGGTACATATATTTAAGTTCAT [XGTACX_site3822]	9.66
TATATTATTAATTAGGGTACAAAAAAAAAATTTTTT [XGTACX_site7762]	9.34

Sequence	gcPBM binding intensity (ln)
TTTTGAAAAAGTTGCACACAAAATTTAAAAAAAAAA [CACACA_site1632]	9.75
TTAAATAGAAATAAGACTAACAATGAACCAAAAAAA [CACACA_negctrl_site991]	9.88
TTTTCATTTGAAAGTCGTACAAGTTCGAAAAAAGGA [XGTACX_site6840]	9.7
CTTAAAAAAACCTTAACACACATAAACTATAATTTA [CACACA_site3055]	9.62
ATATTATATATATGTGCACACAAAAGATATATATAT [CACACA_site2125]	10.3
ATAAGCAATAAAAAAACATGCATATTATTATCAACA [TGCATGCA_site1027]	9.82
TTTAAAAATAAAAGTACACACATAAACATATTGCAC [CACACA_site6784]	10
AAGTTAACACAACAGGTGCAAGAAAAGTTTTTAATG	9.7
ATCAAGCACGGACACACACACACACCCAGACCCCCA [CACACA_site4360]	10.6
TCTTTAATATATAGTGCATGTAAATTTTACAATAAT [TGCATGCA_site242]	9.49
TATGGTATATACAACACACACACATATGTATATATA [CACACA_site927]	10.9
AGTTAATGTTTATGTACACACGGTGGGTATATATTT [CACACA_site5785]	9.85
GATCTACATGAAAGGACACACAAATATATATATATA [CACACA_site84]	10.1
ATAAATATGGAGCACACACACATAAACATACCTATA [CACACA_site6336]	10.8
TTAAAAATGATTGAATGTACAGATTAATATAATTTT [XGTACX_site7394]	9.51
TAATTTTTGAAACACACACACATATATATATATATA [CACACA_site94]	10.5
ATAATAAGGTTAAGCACACATATTACAGATATAACT [CACACA_site5791]	9.88
AAATATTATGTGGCAAGTACATAAAGAAAATGCTTA [XGTACX_site3356]	9.65
AATAATAATAATAATAGTACATATTATGAATATGAT [XGTACX_site5730]	9.82
